PubChem BioAssay AID686978 (National Center for Advancing Translational Sciences (NCATS), 2013)
About 64,000 (15%) of roughly 420,000 compounds were called active. The shares of active, inactive and inconclusive entries below differ from those in the screen. Calls follow the shape of the dose curve; as a rule, active = well fitted inhibition curve with a large enough effect; inconclusive = small, poorly fitted or top-dose-only effect; inactive = flat fitted curve, though single readings scatter. No potency is given beside an inconclusive call; the fits are too rough.

experiment: qHTS for Inhibitors of human tyrosyl-DNA phosphodiesterase 1 (TDP1): qHTS in cells in absence of CPT; conditions: DT40 Tdp1-/- hTDP1 cells, no CPT, ATP luminescence, 48 h; activity change, negative = growth inhibition: at 46.2 µM (top of the series) unless noted; also: nearly all actives have a fitted effect of over 55% in size
Outline: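 Readout: luminescence from CellTiter-Glo after 30 min in the dark at RT. Cells: DT40 Tdp1-/- with stable hTDP1, 400/well. Exposure: compounds alone, ≥48 hr, 37 °C.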
% is scaled to controls: 0 for no effect and ±100 for the full control effect; potency is read from the fitted curve at half-maximal effect; tags tell the direction and shape of the fitted curve.

SMILES	Potency	activity change, negative = growth inhibition
Cc1ccc(/C=C/C(=O)Nc2ccc(Oc3ccccc3)cc2)o1	inconclusive [inhibitor, single point]	
COC(=O)C[C@H]1C=C[C@H](NC(=O)c2ccccn2)[C@@H](CO)O1	inactive	
Cc1onc(-c2c(F)cccc2Cl)c1C(=O)Nc1cccc(S(=O)(=O)NCc2ccco2)c1	inconclusive [inhibitor, single point]	
Cc1nc2ccccn2c1-c1csc(NCc2ccco2)n1	active: 20.6 µM	
O=C(CN1CCc2ccccc2C1)Nc1ccccc1F	inactive	
CCO[C@@H]1OC(C(=O)Nc2ccccc2)=C[C@H](C2CC2)[C@H]1CCCO	inconclusive [inhibitor, single point]	
Cc1ccc(CNC(=O)C2CCCN(c3nc4ccsc4c(=O)s3)C2)cc1 (stereo not given)	inconclusive [inhibitor, single point]	
CN(C)c1ccc(C(=O)N2CCCC2)cc1	inactive	
CCc1nc2c(OCC3COc4ccccc4O3)cccn2c1N(C)C(=O)c1cccs1 (stereo not given)	inconclusive [inhibitor, single point]	
COc1ccc(CCNC(=O)c2c(-c3ccccc3Cl)noc2C)cc1	inconclusive [inhibitor, single point]	
COc1ccc(CNCC(O)COc2ccc(C)cc2[N+](=O)[O-])cc1 (stereo not given)	inconclusive [inhibitor, single point]	
O=c1c(-c2cccc([N+](=O)[O-])c2)[n+]([O-])c2ccccc2n1O	inactive	
Cc1occc1C(=O)NCCN1Cc2ccccc2OC(c2ccccc2F)C1 (stereo not given)	inconclusive [inhibitor, single point]	
O=C1[C@@H](Oc2ccccc2)[C@@H](c2ccncc2)N1c1ccncc1	inconclusive [inhibitor, partial curve]	
Nc1ncnc2nc(SCc3ccccc3)[nH]c12		inconclusive: -30.1% [inhibitor]
Cc1c(C(=O)NCCSCc2c(F)cccc2Cl)cnn1-c1ccc(F)cc1	active: 25.9 µM	
CCc1ccccc1NC(=O)CSc1nnc(-c2ccccc2)c(-c2ccccc2)n1	inconclusive [inhibitor, partial curve, poor fit]	
O=C(CN(c1ccc(Cl)c(C(F)(F)F)c1)S(=O)(=O)c1ccccc1)Nc1cccnc1	active: 7.31 µM	
Cc1ccc(S[C@@H](CCN2CC[C@H](NC(=O)OCc3ccccc3)CCC2=O)c2ccccc2)cc1	active: 11.2 µM	
O=C(c1cccc(C(F)(F)F)c1)N1CCCCCC1	inconclusive [inhibitor, partial curve]	
